# Hit rate of the full screen: of about 310,000 compounds, about 14,000 (4.5%) showed an effect of 50% or more. The effect is printed as a negative number. This is one part of the list.
# Biological target: human ether-à-go-go-related gene (hERG) potassium channel (human, UniProt Q12809)
# Experiment: primary screen, population patch clamp on CHO cells stably expressing hERG
# 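Note: peak tail current of the secondary pulse compared with the same well before compound.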
# human ether-à-go-go-related gene (hERG) potassium channel, sequence (Q12809 whole entry, looked up): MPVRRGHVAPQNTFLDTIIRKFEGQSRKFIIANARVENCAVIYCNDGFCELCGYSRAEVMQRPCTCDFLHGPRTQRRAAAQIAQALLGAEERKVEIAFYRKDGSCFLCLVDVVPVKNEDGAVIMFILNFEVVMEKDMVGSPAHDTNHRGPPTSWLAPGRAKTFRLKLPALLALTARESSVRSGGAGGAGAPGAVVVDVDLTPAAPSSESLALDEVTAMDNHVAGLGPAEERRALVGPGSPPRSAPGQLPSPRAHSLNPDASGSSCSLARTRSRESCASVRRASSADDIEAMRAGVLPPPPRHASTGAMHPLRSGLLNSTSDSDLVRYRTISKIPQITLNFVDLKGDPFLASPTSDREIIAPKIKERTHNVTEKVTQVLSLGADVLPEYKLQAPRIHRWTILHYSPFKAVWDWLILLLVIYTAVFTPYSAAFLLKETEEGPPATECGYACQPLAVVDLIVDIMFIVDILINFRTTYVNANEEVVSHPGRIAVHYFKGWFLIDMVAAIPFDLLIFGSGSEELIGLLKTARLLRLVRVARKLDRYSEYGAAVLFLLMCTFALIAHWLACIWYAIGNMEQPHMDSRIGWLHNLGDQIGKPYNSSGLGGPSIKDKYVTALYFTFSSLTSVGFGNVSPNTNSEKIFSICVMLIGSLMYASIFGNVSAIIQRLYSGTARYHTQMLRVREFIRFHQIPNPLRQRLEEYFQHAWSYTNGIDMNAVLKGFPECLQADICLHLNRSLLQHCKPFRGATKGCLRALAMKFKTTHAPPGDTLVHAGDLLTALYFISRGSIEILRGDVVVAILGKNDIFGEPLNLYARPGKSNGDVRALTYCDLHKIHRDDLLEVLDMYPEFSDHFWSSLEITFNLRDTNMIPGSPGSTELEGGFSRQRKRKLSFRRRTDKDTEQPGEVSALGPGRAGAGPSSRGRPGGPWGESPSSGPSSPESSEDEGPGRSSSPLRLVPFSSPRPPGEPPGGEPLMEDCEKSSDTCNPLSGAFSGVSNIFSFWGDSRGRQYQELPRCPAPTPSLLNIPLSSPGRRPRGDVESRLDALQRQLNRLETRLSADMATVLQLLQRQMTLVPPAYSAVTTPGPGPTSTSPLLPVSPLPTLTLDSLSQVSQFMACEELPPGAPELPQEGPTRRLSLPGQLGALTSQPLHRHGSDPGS
row,SMILES,"hERG current change (%, negative = inhibition) at 10uM [%]"
1,CCOc1ccc(NC(=O)CSc2nc3ccccc3c(=O)n2CCNC(C)=O)cc1,-6.93
2,O=C(COC(=O)Cc1ccc(F)cc1)NC(=O)NC1CCCC1,-4.92
3,Cc1cc(N=Nc2ccc(Cl)cc2)cc(CN2CCCC2)c1O,10.3
4,Cc1cc(C(=O)Nc2cccc(NC(=O)c3ccco3)c2)ccc1[N+](=O)[O-],6.11
5,COCCN1Cc2cccc(C(=O)Nc3ccc(C)cc3)c2C1=O,-27.3
6,C#CCOCCOCCOCCNc1nc(N2CCN(C(=O)[C@H]([C@@H](C)CC)n3cc(CCC[NH+]=C(N)N)nn3)CC2)nc(N2CCN(C(=O)[C@H](CCCC[NH3+])n3cc(CCCC)nn3)CC2)n1.[Cl-],7.25
7,CC1CCc2cc(F)ccc2N1C(=O)CSc1nnc2c(n1)[nH]c1ccc(F)cc12 (stereo not drawn),20.7
8,Cc1ccc(SCC(=O)N2CCOCC2)cc1,4.71
9,COc1ccccc1OCCNCC(O)COc1cccc2[nH]c3ccccc3c12 (stereo not drawn),-65.6
10,O=Cc1ccc(OCc2nnc(-c3ccccc3Br)o2)cc1,-22.3
11,Nn1c(COc2ccccc2F)nnc1SCC(=O)NC1CCS(=O)(=O)C1 (stereo not drawn),-7.72
12,CCOC(=S)SCc1cn2cccc(C)c2n1,-11.5
13,N#Cc1ccccc1S(=O)(=O)Nc1ccc2c(c1)C(=O)OC2,15.3
14,O=C1Nc2cc(C(=O)NCCCN3CCOCC3)ccc2S/C1=C/c1cccc(Cl)c1,9.36
15,NS(=O)(=O)c1ccc(CCNC(=O)c2ccc(-c3ccccc3)cc2)cc1,9.92
16,O=C(CSc1ncn[nH]1)CSc1ncn[nH]1,13.6
17,COC(=O)C1(CCSC)NC(c2ccccc2OC)C2C(=O)N(C)C(=O)C21 (stereo not drawn),-4.79
18,COC(=O)C1=C(C)NC(=O)/C1=C\c1ccc2c(c1)OCO2,5.31
19,CN(CC(=O)NCCc1ccccn1)S(=O)(=O)c1ccc(Cl)cc1,-17
20,O=C(CN(C1CCCCC1)S(=O)(=O)c1ccc(Cl)cc1)NCc1ccncc1,-69.8
21,O=C(CC1C(=O)N(c2ccc(F)cc2)C(=O)N1Cc1ccccn1)Nc1ccccc1 (stereo not drawn),-6.3
22,O=C(O)c1cc(C(=O)C2CC2)c[nH]1,11.5

row,SMILES,"hERG current change (%, negative = inhibition) at 10uM [%]"
1,Cc1ccccc1OCCCCn1c(CO)nc2ccccc21,-45.1
2,CC1CN(C(=O)C(C)N2CCN(c3ccccc3Cl)CC2)CC(C)O1 (stereo not drawn),5.63
3,O=C(Nc1ccc(S(=O)(=O)N2CCCCC2)cc1)c1ccccc1Cl,-73.1
4,CN(C)CCCn1c(=O)n(C2CCCCC2)c(=O)c2c3c(sc21)CCCCC3,-53.8
5,CCOc1ccc(NC(=O)Cn2nc(-c3ccccc3Cl)n(CC)c2=S)cc1,-0.968
6,CCCCn1c(N)c(N(CC(C)C)C(=O)CCC2CCCCC2)c(=O)[nH]c1=O,-8.68
7,Cc1ccc(/C([O-])=C(/C(=S)NCCN2CCOCC2)[n+]2ccccc2)cc1[N+](=O)[O-],18.8
8,COc1ccc(N(CC(=O)N2CCN(C)CC2)S(=O)(=O)c2ccccc2)cc1OC,4.24
9,COc1ccc(OCC(=O)OC2CCN(C)CC2)cc1.Cl,-2.74
10,O=[N+]([O-])c1cccc2cn[nH]c12,5.18
11,COc1ccc(Cl)cc1N(CC(=O)Nc1ccccc1C(=O)NCc1ccco1)S(C)(=O)=O,14
12,CC(NC(=O)c1cc(Br)ccc1Cl)c1ccccc1 (stereo not drawn),1.19
13,CCc1c(C)nc2ncnn2c1NC1CCCc2ccccc21 (stereo not drawn),-12.1
14,O=C(NCCN1CCN(c2ccc([N+](=O)[O-])cc2)CC1)NCc1ccccc1,-67.7
15,COc1ccc(-n2c(O)c(C=NCC(c3ccco3)N3CCCC3)c3ccccc3c2=O)cc1OC (stereo not drawn),3.34
16,CC1CCc2c(sc3ncn(Cc4ccc(C(=O)O)cc4)c(=O)c23)C1 (stereo not drawn),4.62
17,CN(C)CCCOC(=O)c1ccc(Br)cc1,-36
18,CCCn1c(SCC(=O)NC2CCCC2)nc2c1c(=O)n(C)c(=O)n2C,-6.13
19,CSc1sc(C(=O)NN)c2c1C(O)CCC2 (stereo not drawn),11.5
20,CCOc1ccccc1OCCCCCc1c(C)n[nH]c1C,-11.9
21,O=C(Nc1cccc(C(F)(F)F)c1)C(Sc1ncnc2ccccc12)c1ccccc1 (stereo not drawn),0.968
22,C=CCOc1c(Br)cc(/C=N/NC(N)=O)cc1OC,-26.4

row,SMILES,"hERG current change (%, negative = inhibition) at 10uM [%]"
1,O=S(=O)(c1ccc2nc(Cc3cccc(C(F)(F)F)c3)[nH]c2c1)N1CCOCC1,-30
2,COc1ccc2c(c1OC)C(=O)N(c1ccc(O)cc1)C2=O,13.4
3,O=C(NCc1ccco1)C(c1cccs1)N(C(=O)Cc1cccs1)c1ccccc1 (stereo not drawn),7.49
4,CC1CC1C(=O)OCC(=O)NCc1ccc(Cl)cc1Cl (stereo not drawn),-15.2
5,CCn1c(O)c(C=NC2CCCC2)sc1=S,-13.3
6,C=CCCCCCCCCc1nc(SCC(C)=O)n[nH]1,4.57
7,CCC1(CC)NC(=O)N(CC(=O)Nc2sc3c(c2C(N)=O)CCC3)C1=O,-13.6
8,COc1ccc(CCNC(=O)CCc2ccc(OC)cc2)cc1,5.42
9,Cc1ccc(C(=O)Nc2ccccc2C(=O)N2CCOCC2)cc1[N+](=O)[O-],-1.89
10,O=C1CN(C(=O)NCC(=O)N[C@@H](Cc2ccccc2)C(=O)O)c2ccccc2N1,15.4
11,CCOc1ccccc1N1CC(C(=O)N(Cc2nnc(-c3ccccc3Cl)o2)C2CC2)CC1=O (stereo not drawn),-16.8
12,COc1ccc(S(=O)(=O)N2CCC(C(=O)N(CC(C)C)C3CCS(=O)(=O)C3)CC2)cc1OC (stereo not drawn),9.74
13,C/C(CC(O)c1ccc2ccccc2n1)=N/O (stereo not drawn),-19.7
14,CCOc1ccc2c(c1)cc(CN(C(=O)CC)C1CCCCC1)c1nnnn12,-42.6
15,Cn1c(=O)c2c(nc(NCCc3ccccc3)n2Cc2ccc(F)cc2)n(C)c1=O,-7.62
16,O=C(CCCc1ccccc1)Nc1ccc(Br)cc1F,14.4
17,CS(=O)(=O)N(CC(=O)N/N=C/c1ccco1)c1ccccc1Br,-3.68
18,CSc1ccc(C(=O)C2CCCN(Cc3cc4ccccc4[nH]3)C2)cc1 (stereo not drawn),-48.8
19,S=C(N/N=C/c1ccc(Cl)c(Cl)c1)Nc1ccccc1Cl,-15
20,Cc1ccc(Sc2c(C)[nH]n(C(C)(C)C)c2=O)cc1,-3.51
21,Cc1cc(N2C(=O)C(O)=C(C(=O)c3cc4ccccc4o3)C2c2ccc(Br)cc2)no1 (stereo not drawn),13.3
22,CCC1(c2ccccc2)NC(=O)N(CC(=O)N2CCN(S(=O)(=O)c3ccccc3)CC2)C1=O (stereo not drawn),-0.341

row,SMILES,"hERG current change (%, negative = inhibition) at 10uM [%]"
1,Cc1ccc(Cc2ccc(C(=O)NNC(N)=S)o2)cc1,5.86
2,C=CCS(=O)(=O)N1CCCC(N(C)CCc2ccc(OC)c(OC)c2)C1 (stereo not drawn),-16.1
3,COCCN(Cc1cc2cc3c(cc2nc1Cl)OCO3)C(=O)Nc1ccc(OC)cc1,14.7
4,CCOC(=O)NC(=O)c1cn(Nc2ncc(C(F)(F)F)cc2Cl)c(=O)[nH]c1=O,6.5
5,O=C(CC1S/C(=N\S(=O)(=O)c2ccc(F)cc2)N(c2ccccc2)C1=O)Nc1ccccc1 (stereo not drawn),18.8
6,C=CP(=O)(O)c1ccccc1,17
7,CC(=O)Nc1cc[n+](CC(=O)c2ccc(Cl)cc2)cc1.[Br-],15
8,COC(=O)C(CC(C)C)NC(=O)c1cc(OC)c(OC)c(OC)c1 (stereo not drawn),-1.83
9,COc1ccc(N2C(=O)C3C(C2=O)C2C=CC3C23CC3)c([N+](=O)[O-])c1 (stereo not drawn),1.25
10,Cc1cccc(-c2nnc(SCCOc3ccc4c(C)cc(=O)oc4c3)o2)c1,-9.93
11,CC(Oc1cccc(Cl)c1)C(=O)Nc1cc(S(=O)(=O)N2CCCCC2)ccc1N1CCOCC1 (stereo not drawn),-8.24
12,CCOC(=O)N1CCC2(CC1)C(C#N)=C(N)Oc1n[nH]c(C)c12,0.62
13,COc1ccccc1-c1cc(C(=O)Nc2cccnc2Cl)no1,1.69
14,O=C(Nc1ccccc1OC(=O)N1CCCCC1)N1CCCCC1,12.2
15,Cc1cccc(N/C=C/c2onc(C)c2[N+](=O)[O-])c1,5.88
16,COc1cc(Nc2nc(-c3ccccc3)c3cc(C)ccc3n2)cc(OC)c1OC,-5.01
17,CCN(CC)c1nc(N)n(CCSC(=S)N(C)C)c(=O)n1,-4.98
18,O=C(O)CCCNc1c(C(=O)Nc2ccc(Cl)cc2)cc([N+](=O)[O-])cc1[N+](=O)[O-],30.7
19,Fc1ccccc1NC(=S)Nc1cccnc1,10.3
20,O=C(NC(=S)Nc1cccc(S(=O)(=O)NC2=NCCC2)c1)c1cc(-c2ccco2)nc2ccccc12,6.22
21,O=C(C1CCC(=O)N(C2CCCC2)C1)N1CCC(Oc2ccccc2Cl)CC1 (stereo not drawn),-62.1

# — PMC4336329 (PLoS ONE, 2015)
